# From the supplement of paper PMC8813932
# Counter-ions that a name gives are not always drawn. ± gives the standard deviation of the averaged measurements. The list shows a part of the results. Repeats are few or missing, and single values can be far off.
# Tests used:
# Assay in all cases: log2 surviving fraction relative to plate median (drug vs vehicle, or drug+dl922-947 vs dl922-947 alone); ovarian cancer lines: OVCAR4 is platinum-sensitive while Ov4Cis resists cisplatin and Ov4Carbo carboplatin; higher = more cell survival
# Conditions in all cases: compound concentration: 10 uM, 192 h
# OVCAR4 = test system: OVCAR4
# Ov4Carbo = test system: Ov4Carbo
# Ov4Cis = test system: Ov4Cis
# [1] = dl922-947 oncolytic adenovirus co-treatment: MOI 10
# [2] = dl922-947 oncolytic adenovirus co-treatment: none
Structure (SMILES),log2 surviving fraction (OVCAR4; [1]),log2 surviving fraction (OVCAR4; [2]),log2 surviving fraction (Ov4Carbo; [1]),log2 surviving fraction (Ov4Carbo; [2]),log2 surviving fraction (Ov4Cis; [1]),log2 surviving fraction (Ov4Cis; [2])
CC[C@H](C)C(=O)O[C@H]1C[C@H](O)C=C2C=C[C@H](C)[C@H](CC[C@@H](O)C[C@@H](O)CC(=O)O)[C@H]21 [Pravastatin sodium],-0.154 ± 0.68,0.265 ± 0.43,0.572,0.0614,-0.0606,-0.874
C#CCN(C)CCCOc1ccc(Cl)cc1Cl [Clorgyline HCl],-0.0128 ± 0.29,-0.476 ± 0.14,0.832,0.194,0.454,0.164
Nc1ccn([C@H]2CC[C@@H](CO)O2)c(=O)n1 [Zalcitabine],1.01 ± 0.31,-1.08 ± 0.32,3.82,0.224,0.923,-0.377
Cc1cc(N)c2ccccc2[n+]1CCCCCCCCCC[n+]1c(C)cc(N)c2ccccc21 [Dequalinium chloride],-3.1 ± 2.1,-4.86 ± 0.26,-2.22,-7.2,-1.98,-5.32
O=C1NC(=O)C(c2ccccc2)(c2ccccc2)N1 [Phenytoin (Lepitoin)],-0.461 ± 0.99,-0.0872 ± 0.33,-0.702,-0.116,-0.126,-0.643
CN(C)CCc1c[nH]c2ccc(C[C@H]3COC(=O)N3)cc12 [Zolmitriptan (Zomig)],0.547 ± 0.33,0.349 ± 0.31,-1.41,0.741,0.139,0.804
CCC[C@@H]1C[C@@H](C(=O)N[C@@H]([C@H]2O[C@H](SC)[C@H](OP(=O)(O)O)[C@@H](O)[C@H]2O)[C@H](C)Cl)N(C)C1 [Clindamycin phosphate],-0.942 ± 0.81,-0.914 ± 0.36,0.293,0.393,0.434,-0.262
CO[C@H]1O[C@@H]2O[C@@]3(C)CC[C@H]4[C@H](C)CC[C@@H]([C@H]1C)[C@@]24OO3 [Artemether (SM-224)],-0.859 ± 0.12,-1.54 ± 0.015,-1.21,0.48,0.232,-0.782
C[C@H](CS)C(=O)N1CCC[C@H]1C(=O)O [Captopril (Capoten)],-0.376 ± 0.26,0.469 ± 0.75,-0.766,0.19,-0.216,-0.239
Oc1cc(O)c(Cl)cn1 [Gimeracil],0.00362 ± 0.17,0.0126 ± 0.92,-0.0772,0.951,1.05,0.808
CC(C)N(CCNC(=O)CN1CCCC1=O)C(C)C [Pramiracetam],0.0799 ± 0.65,0.0728 ± 0.54,-0.782,-0.0993,0.202,-0.167
Cc1cn(-c2cc(NC(=O)c3ccc(C)c(Nc4nccc(-c5cccnc5)n4)c3)cc(C(F)(F)F)c2)cn1 [Nilotinib (AMN-107)],1.78 ± 0.027,1.12 ± 0.025,0.851,2.7,0.973,1.58
O=c1c(-c2ccc(O)cc2)coc2cc(O)ccc12 [Daidzein],0.226 ± 0.26,-0.164 ± 1.2,-0.284,-0.64,0.271,-0.244
COc1cc2c(cc1OC)CC(=O)N(CCCN(C)C[C@H]1Cc3cc(OC)c(OC)cc31)CC2 [Ivabradine HCl (Procoralan)],-0.186 ± 0.72,0.0385 ± 0.54,-0.601,-1.03,0.93,0.397
CCC(=O)O[C@@H](O[P@](=O)(CCCCc1ccccc1)CC(=O)N1C[C@H](C2CCCCC2)C[C@H]1C(=O)O)C(C)C [Fosinopril sodium (Monopril)],0.696 ± 0.79,-0.174 ± 0.5,0.555,0.254,0.105,-0.22
NC(=O)N/N=C/c1ccc([N+](=O)[O-])o1 [Nitrofurazone (Nitrofural)],-0.511 ± 1.4,0.381 ± 0.046,1.36,0.797,0.614,0.864
O=C1CCC(N2C(=O)c3ccccc3C2=O)C(=O)N1 (centres undefined) [Thalidomide],0.702 ± 0.12,3.19 ± 2.7,1.07,2.64,1.7,0.869
COc1ccc([C@H]2CNC(=O)C2)cc1OC1CCCC1 [S-(+)-Rolipram],-0.694 ± 0.94,-0.624 ± 0.25,0.477,-0.252,-0.628,-0.968
NC(=O)C(c1ccccc1)(c1ccccc1)[C@@H]1CCN(CCc2ccc3c(c2)CCO3)C1 [Darifenacin HBr],-0.672 ± 0.43,-1.04 ± 0.065,-0.0517,-0.572,-1.71,-0.295
CN1CCN(CCCN2c3ccccc3Sc3ccc(Cl)cc32)CC1 [Prochlorperazine Dimaleate],-3.59 ± 1.3,-2.63 ± 0.028,-5.38,-6.43,-4.16,-2.71
CO/N=C(\C(=O)N[C@@H]1C(=O)N2C(C(=O)O)=C(CSC(=O)c3ccco3)CS[C@H]12)c1csc(N)n1 [Ceftiofur hydrochloride],-0.611 ± 0.14,0.137 ± 0.2,0.0419,-0.945,0.206,-0.208
O=S(=O)(O)NC1CCCCC1 [Cyclamic  acid],0.667 ± 0.062,0.539 ± 0.38,-1.13,-0.528,0.0534,-1.13

Structure (SMILES),log2 surviving fraction (OVCAR4; [1]),log2 surviving fraction (OVCAR4; [2]),log2 surviving fraction (Ov4Carbo; [1]),log2 surviving fraction (Ov4Carbo; [2]),log2 surviving fraction (Ov4Cis; [1]),log2 surviving fraction (Ov4Cis; [2])
CCCCOc1ccc(C(=O)CCN2CCCCC2)cc1 [Dyclonine HCl],-0.579 ± 0.59,-0.0645 ± 1.3,-0.183,-0.449,-0.743,-0.253
CC[N+](CC)(CC)CCOc1cccc(OCC[N+](CC)(CC)CC)c1OCC[N+](CC)(CC)CC [Gallamine triethiodide (Flaxedil)],0.196 ± 0.22,-0.0116 ± 0.65,0.558,0.592,0.775,0.662
CCCNC(C)C(=O)Nc1c(C)csc1C(=O)OC (centres undefined) [Articaine HCl],0.354 ± 0.83,-0.625 ± 0.93,0.266,-0.727,-0.0511,0.657
CC(C)(C#N)c1cc(Cn2cncn2)cc(C(C)(C)C#N)c1 [Anastrozole],0.867 ± 0.49,3.08 ± 2.6,0.247,-0.0983,0.0306,0.823
CN(C)CCCSC(=N)N [Dimaprit 2HCl],0.418 ± 0.035,0.345 ± 0.13,-0.105,-0.151,-0.444,0.52
NC12CC3CC(CC(C3)C1)C2 [Amantadine hydrochloride (Symmetrel)],1.03 ± 0.7,1.26 ± 0.34,0.73,0.946,1.28,1.03
CN[C@H](CC(C)C)C(=O)N[C@H]1C(=O)N[C@@H](CC(N)=O)C(=O)N[C@H]2C(=O)N[C@H]3C(=O)N[C@H](C(=O)N[C@H](C(=O)O)c4cc(O)cc(O)c4-c4cc3ccc4O)[C@H](O)c3ccc(c(Cl)c3)Oc3cc2cc(c3O[C@@H]2O[C@H](CO)[C@@H](O)[C@H](O)[C@H]2O[C@H]2C[C@](C)(N)[C@H](O)[C@H](C)O2)Oc2ccc(cc2Cl)[C@H]1O [Vancomycin HCl (Vancocin)],0.721 ± 0.57,0.314 ± 1.4,0.297,0.904,0.504,0.07
c1ccc(-c2ccc(C(c3ccccc3)n3ccnc3)cc2)cc1 (centres undefined) [Bifonazole],-0.76 ± 0.026,-1.06 ± 0.28,-0.565,-1.72,-0.122,-0.101
C[N+](C)(C)CC(O)CC(=O)[O-] (racemic) [DL-Carnitine hydrochloride],-0.372 ± 0.64,-0.684 ± 0.28,0.0853,0.469,0.602,-0.582
Cc1cnc(C(=O)NCCc2ccc(S(=O)(=O)NC(=O)NC3CCCCC3)cc2)cn1 [Glipizide (Glucotrol)],-2.29 ± 0.91,-2.6 ± 1.5,0.831,0.823,-2.17,-2.53
O=C(NC[C@H]1CN(c2ccc(N3CCOCC3=O)cc2)C(=O)O1)c1ccc(Cl)s1 [Rivaroxaban (Xarelto)],0.308 ± 0.21,-0.136 ± 0.13,1.15,-0.784,0.0687,0.794
COc1cc(NS(=O)(=O)c2ccc(N)cc2)nc(OC)n1 [Sulphadimethoxine],0.218 ± 0.95,0.327 ± 0.093,1.05,-0.0472,0.658,0.127
CCN1CCC[C@H]1CNC(=O)c1cc(S(N)(=O)=O)ccc1OC [Levosulpiride (Levogastrol)],0.401 ± 0.57,0.285 ± 0.74,1.27,0.119,0.823,0.571
Cc1cc2nc3c(=O)[nH]c(=O)nc-3n(C[C@H](O)[C@H](O)[C@H](O)CO)c2cc1C [Riboflavin (Vitamin B2)],-0.081 ± 0.82,0.0761 ± 0.22,1.13,0.122,-0.222,-0.438
COc1c(C)c2c(c(O)c1C/C=C(\C)CCC(=O)O)C(=O)OC2 [Mycophenolic (Mycophenolate)],-2.87 ± 1.1,-5 ± 0.62,-2.76,-8,-3.03,-5.29
Cc1ccccc1N1C(=O)c2cc(S(N)(=O)=O)c(Cl)cc2NC1C (centres undefined) [Metolazone (Zaroxolyn)],-0.74 ± 0.08,-0.267 ± 0.59,-0.835,-0.716,-0.594,-0.36
COc1ccc(-n2nc(C(N)=O)c3c2C(=O)N(c2ccc(N4CCCCC4=O)cc2)CC3)cc1 [Apixaban],-0.158 ± 0.22,-0.46 ± 0.65,-0.0495,-0.444,-0.425,-0.717
CCOC(=O)c1cncn1[C@H](C)c1ccccc1 [Etomidate],-0.195 ± 1.3,0.62 ± 0.24,-0.132,-0.433,0.561,0.601
NC[C@H]1O[C@H](O[C@H]2[C@H](O)[C@@H](O[C@H]3O[C@H](CO)[C@@H](O)[C@H](N)[C@H]3O)[C@H](N)C[C@@H]2N)[C@H](N)[C@@H](O)[C@@H]1O [Bekanamycin],0.261 ± 0.13,0.864 ± 2,-0.461,0.554,-1.5,0.551
CC1=C(/C=C/C(C)=C/C=C/C(C)=C\C(=O)O)C(C)(C)CCC1 [Isotretinoin],0.178 ± 0.4,-0.324 ± 0.53,-0.0328,-1.73,-0.116,0.0107
CCC(=O)O[C@]1(C(=O)CCl)[C@@H](C)C[C@H]2[C@@H]3C[C@H](F)C4=CC(=O)C=C[C@]4(C)[C@@]3(F)[C@@H](O)C[C@@]21C [Halobetasol Propionate],-0.0877 ± 0.46,-1.73 ± 0.052,-0.207,-0.818,0.637,-3.17
COc1cc(C)c(/C=C/C(C)=C/C=C/C(C)=C/C(=O)O)c(C)c1C [Acitretin],-0.218 ± 0.22,-0.8384 ± 0.0054,0.00391,-0.0404,-0.827,-0.574
